Data published in the supplement of paper PMC7826260.
This is one part of the list. One pool of 16,384 single-stranded DNAs met each Rep nickase domain in vitro (3 µM enzyme, 1 h, 37 °C); shown is the middle of each 90-letter strand. The score is log2 (uncut reads / reads without enzyme); more negative means more cut, near 0 not cut, and no call is made. The scaling is to total reads; uncut strands gain when others are lost, and binding without cutting may add a little.

How the values were obtained:
Test in all cases: uncleaved DNA left, log2 of reads against the no-enzyme library (log2 ratio); higher = less cleavage (more negative = more Rep cleavage of the k-mer); sequences stand for … in CTCGTCCG…ACCGGAGA
[1] = tested on: T1, Rep nickase domain of Muscovy duck circovirus
T1 sequence (residues 1-111, tag not shown): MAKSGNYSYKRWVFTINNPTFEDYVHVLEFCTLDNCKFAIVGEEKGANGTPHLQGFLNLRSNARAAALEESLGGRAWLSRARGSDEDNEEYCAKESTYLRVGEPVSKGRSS
Experimental: (§1)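 A pool of 90-nt single-stranded DNAs with seven random bases just before the constant AC of the nick site (name = the seven bases) was cut by 3 µM recombinant His6-SUMO-tagged Rep nickase domain (300 nM DNA, 50 mM HEPES pH 8.0, 50 mM NaCl, 1 mM MnCl2, 1 h, 37 °C, three replicates). Uncut DNA was amplified and sequenced.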

[2] = tested on: T2, Rep nickase domain of banana bunchy top virus
T2 sequence (residues 1-94, tag not shown): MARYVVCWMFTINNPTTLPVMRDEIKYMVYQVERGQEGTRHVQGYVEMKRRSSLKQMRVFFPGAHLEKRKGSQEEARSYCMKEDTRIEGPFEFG
Experimental: as §1

[3] = tested on: T3, Rep nickase domain of cabbage leaf curl virus
T3 sequence (residues 1-116, tag not shown): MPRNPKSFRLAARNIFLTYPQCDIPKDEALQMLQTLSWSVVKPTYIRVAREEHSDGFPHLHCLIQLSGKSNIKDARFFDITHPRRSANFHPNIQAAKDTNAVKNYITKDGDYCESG
Experimental: as §1

[4] = tested on: T4, Rep nickase domain of chickpea chlorotic dwarf virus
T4 sequence (residues 1-124, tag not shown): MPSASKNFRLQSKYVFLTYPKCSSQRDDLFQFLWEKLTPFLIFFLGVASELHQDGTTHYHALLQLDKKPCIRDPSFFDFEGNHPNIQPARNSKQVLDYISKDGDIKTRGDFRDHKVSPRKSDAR
Experimental: as §1

[5] = tested on: T5, Rep nickase domain of faba bean necrotic yellows virus
T5 sequence (residues 1-98, tag not shown): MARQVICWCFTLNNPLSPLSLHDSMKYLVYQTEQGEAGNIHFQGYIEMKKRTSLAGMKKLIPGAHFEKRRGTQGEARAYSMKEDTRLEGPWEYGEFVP
Experimental: as §1

[6] = tested on: T6, Rep nickase domain of maize striate mosaic virus
T6 sequence (residues 1-117, tag not shown): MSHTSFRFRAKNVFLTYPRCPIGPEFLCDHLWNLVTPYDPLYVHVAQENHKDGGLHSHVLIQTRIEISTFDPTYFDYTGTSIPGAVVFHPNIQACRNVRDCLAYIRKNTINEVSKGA
Experimental: as §1

[7] = tested on: T7, Rep nickase domain of porcine circovirus 2
T7 sequence (residues 2-116, tag not shown): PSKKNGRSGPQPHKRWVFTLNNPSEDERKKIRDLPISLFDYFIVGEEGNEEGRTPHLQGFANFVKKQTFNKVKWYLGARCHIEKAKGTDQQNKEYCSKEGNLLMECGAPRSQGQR
Experimental: as §1

[8] = tested on: T8, Rep nickase domain of tomato golden mosaic virus
T8 sequence (residues 1-124, tag not shown): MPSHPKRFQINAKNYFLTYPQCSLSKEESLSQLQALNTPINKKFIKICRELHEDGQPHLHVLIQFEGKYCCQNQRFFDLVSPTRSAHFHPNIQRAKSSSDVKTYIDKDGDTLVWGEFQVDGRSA
Experimental: as §1

[9] = tested on: T9, Rep nickase domain of tomato yellow leaf curl virus
T9 sequence (residues 1-136, tag not shown): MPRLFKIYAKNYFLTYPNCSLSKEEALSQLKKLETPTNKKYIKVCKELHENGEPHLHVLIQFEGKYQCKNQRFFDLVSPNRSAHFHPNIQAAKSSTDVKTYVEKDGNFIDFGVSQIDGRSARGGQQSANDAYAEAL
Experimental: as §1

[10] = tested on: T10, Rep nickase domain of wheat dwarf virus
T10 sequence (residues 1-137, tag not shown): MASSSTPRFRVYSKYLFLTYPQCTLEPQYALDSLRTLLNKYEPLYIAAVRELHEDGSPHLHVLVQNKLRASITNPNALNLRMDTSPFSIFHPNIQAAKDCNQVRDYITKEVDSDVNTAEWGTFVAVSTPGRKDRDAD
Experimental: as §1

Row | Sequence | uncleaved DNA left (log2) [1] | uncleaved DNA left (log2) [2] | uncleaved DNA left (log2) [3] | uncleaved DNA left (log2) [4] | uncleaved DNA left (log2) [5] | uncleaved DNA left (log2) [6] | uncleaved DNA left (log2) [7] | uncleaved DNA left (log2) [8] | uncleaved DNA left (log2) [9] | uncleaved DNA left (log2) [10]
1 | GTACTCT | -0.0723 | -0.018 | 0.29 | 0.558 | -0.0779 | 1.7 | -0.0128 | 0.0207 | 0.0246 | -0.0903
2 | TGTTGGC | 0.0847 | 0.0193 | -0.0107 | -0.135 | 0.0201 | -0.662 | 0.0809 | -0.0533 | 0.0724 | 0.0048
3 | CTTGCTA | -0.176 | -0.142 | -0.662 | -1.26 | -0.162 | -1.35 | -0.112 | -0.232 | -0.146 | -0.328
4 | TATAACA | 0.0862 | -0.00166 | -0.464 | -2.69 | -0.0528 | -0.377 | -0.132 | -0.00157 | -0.000199 | -0.0868
5 | TCAATAC | -0.0109 | -0.0769 | 0.0481 | -0.638 | 0.0253 | -0.736 | -0.0766 | -0.00703 | -0.111 | -0.11
6 | GCTACTC | 0.0135 | 0.042 | 0.142 | -0.28 | -0.0773 | 0.293 | 0.122 | -0.0435 | 0.0339 | 0.137
7 | TTGCAGG | 0.219 | 0.0995 | -0.174 | -0.139 | 0.112 | -0.584 | 0.196 | 0.19 | 0.0289 | -0.0519
8 | AATAGCC | 0.0897 | 0.0499 | -0.167 | -0.446 | 0.109 | -1.23 | 0.129 | 0.0765 | 0.0286 | 0.0116
9 | AGTTGGG | 0.166 | -0.0238 | -0.743 | -0.545 | 0.0486 | -0.927 | 0.269 | 0.0831 | 0.042 | -0.114
10 | CTCAGAC | 0.0374 | 0.0342 | 0.0793 | 0.265 | -0.11 | -0.355 | 0.211 | 0.0148 | -0.0705 | -0.0479
11 | CCTGTAG | -0.00255 | -0.0902 | -0.903 | -0.361 | -0.27 | -1.16 | 0.0732 | -0.205 | -0.0727 | -0.309
12 | TATGCTT | -0.0979 | -1.62 | -2.24 | -2.38 | 0.0371 | -0.659 | -1.44 | -0.164 | -0.00907 | -0.172
13 | TACAAGC | 0.0717 | 0.0126 | -0.0346 | -0.258 | 0.0019 | -0.844 | 0.191 | 0.0295 | 0.00281 | 0.0822
14 | GCCCGCC | 0.00777 | -0.0185 | 0.123 | 0.48 | -0.0809 | 0.25 | 0.119 | 0.0683 | -0.0906 | -0.077
15 | TGTTAGC | 0.00636 | -0.0588 | -0.0352 | -0.119 | 0.0363 | -0.74 | -0.0236 | -0.0623 | -0.061 | -0.0557
